Reference: PubChem BioAssay (NCATS)
Inconclusive means that the source gave no clear call. Such entries were picked first, then a sample of the others. Potencies of inconclusive entries are left out as doubtful fits. Activity calls are given as the source filed them. Calls come from the whole dose curve; as a rule, active = well fitted cell-killing curve with a large enough effect; inconclusive = small, poorly fitted or top-dose-only effect; inactive = no such curve, though single readings can be large or run the other way.

Experiment: qHTS of pediatric cancer cell lines to identify multiple opportunities for drug repurposing: Primary screen for SJ-GBM2 cells (AID 1347091)
Procedure, shortened: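 Viability measured as metabolically active cells via CellTiter-Glo luminescence following 48 hours of compound exposure, 11-point dilutions in confirmatory testing. 500-1,000 cells/well plated 5 hours before dosing; controls were DMSO and 2.3 µM bortezomib.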
Potency is the fitted concentration of half-maximal effect; tags give direction and shape of the fitted curve.

Structure (SMILES)	Potency
COc1ccc(CC2=NN3C([C@@H](CCc4ccccc4)[C@@H](C)O)=NC(C)C3C(=O)N2)cc1OC (some centres undefined)	inactive
CC(C)(C)Cn1c(N)nc2ccc(-c3[nH]c(C(C)(C)C)nc3-c3ccc(F)cc3)nc21	inconclusive [cytotoxic, partial curve]
CC[C@@H](C)[C@H](NC(=O)[C@H](CC1CCCCC1)NC(=O)c1ccno1)C(=O)N1CCC2(CCc3ccccc32)CC1	inconclusive [cytotoxic, partial curve, poor fit]
O=c1cc(-c2ccccc2)oc2cc(O)cc(O)c12	inconclusive [cytotoxic, partial curve]
